Results: article doi:10.1101/2022.11.29.518370 (bioRxiv, 2022)

Target: the molecule itself
Assay: FRET or BRET

B1: CTLA-4 with the last 23 amino acids removed, fused C-terminally to mEGFP or mCherry (dimer control) (receptor)
chain: not shown
stoichiometry N: 2
